This is an account of results in publication PMC10897228.

Chains of the proteins cited; added tags and fusions are not shown. Lines headed by an entry give the natural chain unless they say otherwise; changes in a name come on top. A line that says so, or that is headed by a name, gives the form on record, which may keep a tag or linker.
UniProt Q99MB2: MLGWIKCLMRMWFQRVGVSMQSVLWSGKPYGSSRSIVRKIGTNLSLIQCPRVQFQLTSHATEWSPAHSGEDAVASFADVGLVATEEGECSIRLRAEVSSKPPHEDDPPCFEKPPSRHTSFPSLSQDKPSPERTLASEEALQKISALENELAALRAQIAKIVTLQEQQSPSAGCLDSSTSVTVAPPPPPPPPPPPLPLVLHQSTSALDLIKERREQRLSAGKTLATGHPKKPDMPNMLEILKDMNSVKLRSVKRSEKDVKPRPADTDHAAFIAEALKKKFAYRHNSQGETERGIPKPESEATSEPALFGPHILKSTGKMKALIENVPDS
UniProt Q8VED8: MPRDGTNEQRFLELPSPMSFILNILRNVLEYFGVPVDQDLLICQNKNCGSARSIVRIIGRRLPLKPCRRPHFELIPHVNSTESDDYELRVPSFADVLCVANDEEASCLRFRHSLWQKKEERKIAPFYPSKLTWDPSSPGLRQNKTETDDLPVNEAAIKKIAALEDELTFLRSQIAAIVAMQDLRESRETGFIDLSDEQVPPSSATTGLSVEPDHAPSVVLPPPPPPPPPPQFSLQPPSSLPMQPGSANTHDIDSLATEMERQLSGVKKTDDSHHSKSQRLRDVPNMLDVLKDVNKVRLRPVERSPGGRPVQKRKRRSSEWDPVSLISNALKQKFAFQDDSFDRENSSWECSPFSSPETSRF
MYO19-919-970-F948A (Q96H55, form named): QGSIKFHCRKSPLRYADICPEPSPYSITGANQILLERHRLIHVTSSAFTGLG

Numbering of substitutions follows the chain as printed. Results are given in words; binding and its absence hold for the method and conditions named. Some results given as binding are weak or reduced against the parent protein; the word gives no strength.

The target of assay [1] is Mtfr1 (mouse) (UniProt Q99MB2). As to the kind of experiment: two-hybrid; LexA-based yeast two-hybrid growth assay in EGY48; MIRO1 construct as prey (pJG4-5), bait in pEG202; streaked on SC-Leu+Gal, 30 °C.
Assay [2] addresses Mtfr2 (mouse) (UniProt Q8VED8). The assay is described as above.
The target in assay [3] is MYO19-919-970-F948A (human) (UniProt Q96H55). As to the kind of experiment: two-hybrid; fluorescence yeast two-hybrid (f-Y2H), LexA-based, EGY48; MIRO1 prey (pJG4-5), bait in pEG202; galactose induction, permeabilised cells in buffer Z with fluorescein di-beta-D-galactopyranoside; well fluorescence minus empty vector.
The target in assay [4] is T1, Trak1-577-620 (mouse) (UniProt Q6PD31).
T1 sequence: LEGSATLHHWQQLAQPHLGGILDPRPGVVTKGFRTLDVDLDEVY
The description is as above.

For assay [5], the target named is T2, Trak1-577-620-D599R (mouse) (UniProt Q6PD31).
T2 sequence: T1 sequence with D23R
The description is as above.

Assay [6] deals with T3, Trak1-577-620-L594A (mouse) (UniProt Q6PD31).
T3 sequence: T1 sequence with L18A
The description is as above.

B1: MIRO1-1-594 (domain or fragment, UniProt Q8IXI2 1-594)
chain: MKKDVRILLVGEPRVGKTSLIMSLVSEEFPEEVPPRAEEITIPADVTPERVPTHIVDYSEAEQSDEQLHQEISQANVICIVYAVNNKHSIDKVTSRWIPLINERTDKDSRLPLILVGNKSDLVEYSSMETILPIMNQYTEIETCVECSAKNLKNISELFYYAQKAVLHPTGPLYCPEEKEMKPACIKALTRIFKISDQDNDGTLNDAELNFFQRICFNTPLAPQALEDVKNVVRKHISDGVADSGLTLKGFLFLHTLFIQRGRHETTWTVLRRFGYDDDLDLTPEYLFPLLKIPPDCTTELNHHAYLFLQSTFDKHDLDRDCALSPDELKDLFKVFPYIPWGPDVNNTVCTNERGWITYQGFLSQWTLTTYLDVQRCLEYLGYLGYSILTEQESQASAVTVTRDKKIDLQKKQTQRNVFRCNVIGVKNCGKSGVLQALLGRNLMRQKKIREDHKSYYAINTVYVYGQEKYLLLHDISESEFLTEAEIICDVVCLVYDVSNPKSFEYCARIFKQHFMDSRIPCLIVAAKSDLHEVKQEYSISPTDFCRKHKMPPPQAFTCNTADAPSKDIFVKLTTMAMYPHVTQADLKSSTFWL
On to B1, for which the binding result in assay [1] is listed as “binds”; in assay [2], “binds”; in assay [3] it was “no binding”; in assay [4] it was “binds”; in assay [5], “binds”; in assay [6] it was “no binding”.
